The source of these data is the supplement of paper PMC9446081.

The campaign covered roughly 39,000 compounds. About 220 (0.56%) showed activity. This is one part of the list.
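Also: static incubation at 37 °C against the wild-type strain, values averaged over two biological replicates.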

The test system of the test is Escherichia coli K-12 BW25113. Description: relative growth (OD600 normalised to plate interquartile mean) (fraction); higher = less growth inhibition, active = 0.2 or less. Conditions: 50 µM; LB; incubation time: overnight (16-24 h).
Turning to `CC(C)NC(=O)[C@@]1(C)c2ccccc2C(=O)N(Cc2cc(C(F)(F)F)cc(C(F)(F)F)c2)[C@H]1c1ccc(CO)cc1`, the relative growth was inactive: 0.971. The value for `COc1cccc(C(=O)Nc2ccc3c(c2)C(=O)N(C)[C@H]2CC[C@@H](CC(=O)NCCCN4CCOCC4)O[C@@H]2CO3)c1` was inactive: 0.989; that for `CNC[C@@H]1Oc2cc(C#CC(C)(C)O)ccc2S(=O)(=O)N([C@H](C)CO)C[C@H]1C` was inactive: 1.04; that for `C[C@H]1CCCCO[C@H](CN(C)S(=O)(=O)c2cccs2)[C@@H](C)CN([C@@H](C)CO)C(=O)c2cc(NS(C)(=O)=O)ccc2O1` was inactive: 0.989. For the compound `C=CCOC(=O)[C@@H]1[C@H]2C(=O)O[C@H](c3ccccc3)[C@H](c3ccccc3)N2[C@H](c2ccc(OCCOC(=O)[C@H]3C[C@H]4C(=O)N[C@@H](CCCC[N+](C)(C)C)C(=O)N4[C@H]3c3cccc(OCCO)c3)cc2)[C@@]12C(=O)Nc1ccccc12`, the relative growth was inactive: 0.962.

On to `Cc1noc(C)c1S(=O)(=O)Nc1ccc2c(c1)C(=O)N([C@@H](C)CO)C[C@H](C)[C@H](CN(C)C(=O)Nc1ccc(F)cc1)OCCCC[C@H](C)O2`, for which the relative growth was inactive: 0.983.

Regarding `COc1ccc(cc1)CN1CC[C@]2(CC1)CN([C@H](CO)c1[nH]c3cc(ccc3c12)OC)C(=O)Nc1ccc(cc1)F`, the relative growth is inactive: 0.985. The value for `C=CCC[C@H](Cc1ccc(F)cc1)C(=O)OC[C@H](Cc1c[nH]c2ccccc12)NC(=O)[C@@H](CC=C)CC(=O)N(CCO)Cc1ccccc1` was inactive: 1.06; that for `C=CC[C@@H](CC(=O)N[C@H](CO)Cc1ccccc1)C(=O)NC[C@H](OC(=O)[C@@H](CC=C)Cc1ccc(F)cc1)c1ccccc1` was inactive: 1.04; that for `COCCNC(=O)C[C@@H]1CC[C@@H]2[C@H](COC[C@H](O)CN2S(=O)(=O)c2ccccc2F)O1` was inactive: 0.999. To `C[C@@H]1CCCCO[C@H](CN(C)S(=O)(=O)c2ccc(F)cc2)[C@@H](C)CN([C@@H](C)CO)C(=O)c2cc(NC(=O)Nc3ccc(C(F)(F)F)cc3)ccc2O1` belongs inactive: 0.967; to `CNC(=O)c1c(I)c(C(=O)NCC(=O)Nc2c(I)c(C(=O)O)c(I)c(C(=O)NCCO)c2I)c(I)c(N(C)C(C)=O)c1I`, inactive: 0.982. The value for `C[C@@H]1CN([C@H](C)CO)C(=O)c2cc(NC(=O)C3CCCCC3)ccc2O[C@@H](C)CCCCO[C@@H]1CN(C)C(=O)c1ccccc1` was inactive: 1.03; that for `COc1ccc(S(=O)(=O)N(C)C[C@@H]2OCCCC[C@H](C)Oc3ccc(NC(=O)Nc4ccc(C(F)(F)F)cc4)cc3C(=O)N([C@H](C)CO)C[C@H]2C)cc1` was inactive: 0.99; that for `CN(C)CC(=O)N[C@@H]1C=C[C@H](CC(=O)NCCN2CCCCC2)O[C@@H]1CO` was inactive: 0.999. Turning to `COc1cccc(S(=O)(=O)Nc2ccc3c(c2)[C@H]2C[C@@H](CC(=O)NCC(F)(F)F)O[C@@H](CO)[C@H]2O3)c1`, the relative growth is inactive: 1.03. With `C[C@@H]1CCCCO[C@@H](CN(C)Cc2ccc(C(F)(F)F)cc2)[C@@H](C)CN([C@@H](C)CO)C(=O)c2cc(NC(=O)Nc3ccc(C(F)(F)F)cc3)ccc2O1`, the relative growth was inactive: 1.05. The value for `C=CCOC(=O)[C@H]1[C@@H]2C(=O)O[C@@H](c3ccccc3)[C@@H](c3ccccc3)N2[C@@H](c2ccc(OCCOC(=O)NCCCCCC(=O)NO)cc2)[C@@]12C(=O)Nc1ccc(I)cc12` was inactive: 0.993.

Take `Cc1noc(C)c1NC(=O)N(C)C[C@H]1Oc2ccc(NS(=O)(=O)c3ccccc3)cc2CC(=O)N([C@@H](C)CO)C[C@H]1C`: the relative growth is inactive: 1. The value for `C[C@H]1CN([C@@H](C)CO)C(=O)c2cc(NS(=O)(=O)c3cn(C)cn3)ccc2O[C@@H]1CN(C)C(=O)Nc1ccc2c(c1)OCO2` was inactive: 0.99; that for `CC1=Nc2ccc(Cl)cc2S(=O)(=O)N1` was inactive: 1.03.

In the case of `CC(=O)N1[C@@H]2c3cccc(=O)n3C[C@@H]2[C@@H](CO)[C@@H]1C(=O)N1CCc2ccccc2C1`, the relative growth was inactive: 1.02.

As for `COc1ccc(NC(=O)Nc2cccc3c2O[C@@H](CN(C)Cc2ccc(Oc4ccccc4)cc2)[C@H](C)CN([C@@H](C)CO)C3=O)cc1`, the relative growth was inactive: 1.04. To `NC(C(=O)O)C(O)c1ccc(O)c(O)c1` (stereo unspecified) belongs inactive: 0.967; to `O=S1(=O)CCN(CC2CCCC2)CC1`, inactive: 0.99; to `CCCC(=O)Nc1ccc2c(c1)C(=O)N(C)C[C@@H](OC)[C@H](C)CN(Cc1cc(-c3ccccc3)on1)[C@H](C)CO2`, inactive: 1.03. `Cc1noc(C)c1NC(=O)N(C)C[C@@H]1Oc2ccc(NS(=O)(=O)c3cn(C)cn3)cc2C(=O)N([C@@H](C)CO)C[C@H]1C`: the relative growth is inactive: 0.997. To `CC(C)NC(=O)N(C)C[C@@H]1Oc2cc(C#Cc3ccc(F)cc3)ccc2S(=O)(=O)N([C@H](C)CO)C[C@H]1C` belongs inactive: 1.02; to `COc1ccc(S(=O)(=O)N2C[C@@H](O)COC[C@H]3O[C@H](CC(=O)NCCCN4CCOCC4)CC[C@@H]32)cc1`, inactive: 0.993.

For `CC(C)CN1C(=O)[C@@]2(Cc3ccccc31)c1ccccc1C(=O)N(Cc1ccccc1Cl)[C@H]2c1ccc(CO)cc1`, the relative growth is inactive: 0.997.

With `C[C@@H]1CN([C@H](C)CO)C(=O)c2cccc(NC(=O)c3nc4ccccc4s3)c2O[C@H]1CN(C)Cc1ccc(-c2ccccc2)cc1`, the relative growth was inactive: 0.823. The value for `C[C@@H]1CN([C@H](C)CO)S(=O)(=O)c2ccc(C#CCN(C)C)cc2O[C@H]1CN(C)S(=O)(=O)c1cccc(F)c1` was inactive: 1.01; that for `COc1cc(Nc2ncc(F)c(Nc3ccc4c(n3)N(COP(=O)(O)O)C(=O)C(C)(C)O4)n2)cc(OC)c1OC` was inactive: 1.03. To `O=c1[nH]c(=O)n([C@H]2C[C@H](O)[C@@H](CO)O2)cc1CO` belongs inactive: 1.04; to `Cc1cccc(S(=O)(=O)N2C[C@H](O)COC[C@H]3O[C@H](CC(=O)NCc4ccncn4)CC[C@@H]32)c1`, inactive: 1. The value for `C[C@@H]1CN([C@H](C)CO)C(=O)c2cc(NS(=O)(=O)c3cn(C)cn3)ccc2O[C@@H]1CN(C)CC1CCCCC1` was inactive: 1.02.
